Source: publication PMC12843386, “Ly6/uPAR Protein from Asterias rubens Starfish Stimulates Migration and Invasion of Human Epithelial and Immune Cells” (Marine Drugs, 2025)
These are yes or no findings as the source states them, for the method shown. For some assays here: In cells and extracts the contact can be indirect. Some binding calls cover weakened binding; strength is not graded here.

Sequences of proteins named here, by UniProt entry; tags and fusion partners are left off. A change or cut given only in a name is not applied to a line headed by its entry. Residues count along the entry.
UniProt P43681, residues 27-627: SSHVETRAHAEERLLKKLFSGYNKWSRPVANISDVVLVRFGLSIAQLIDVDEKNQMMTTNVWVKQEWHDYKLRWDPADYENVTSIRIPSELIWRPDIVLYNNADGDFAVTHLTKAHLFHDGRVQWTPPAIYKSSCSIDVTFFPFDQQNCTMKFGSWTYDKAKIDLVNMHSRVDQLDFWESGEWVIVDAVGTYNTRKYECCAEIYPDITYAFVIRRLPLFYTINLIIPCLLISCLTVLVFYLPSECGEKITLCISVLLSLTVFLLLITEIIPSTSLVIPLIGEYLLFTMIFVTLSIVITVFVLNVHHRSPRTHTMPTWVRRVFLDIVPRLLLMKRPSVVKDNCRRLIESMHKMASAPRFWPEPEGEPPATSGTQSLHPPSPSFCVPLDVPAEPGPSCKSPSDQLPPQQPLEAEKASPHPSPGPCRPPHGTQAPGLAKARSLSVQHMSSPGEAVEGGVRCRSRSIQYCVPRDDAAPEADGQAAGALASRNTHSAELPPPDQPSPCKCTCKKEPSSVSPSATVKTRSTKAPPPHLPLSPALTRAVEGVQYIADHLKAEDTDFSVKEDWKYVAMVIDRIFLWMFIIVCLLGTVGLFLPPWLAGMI
UniProt P32297, residues 32-505: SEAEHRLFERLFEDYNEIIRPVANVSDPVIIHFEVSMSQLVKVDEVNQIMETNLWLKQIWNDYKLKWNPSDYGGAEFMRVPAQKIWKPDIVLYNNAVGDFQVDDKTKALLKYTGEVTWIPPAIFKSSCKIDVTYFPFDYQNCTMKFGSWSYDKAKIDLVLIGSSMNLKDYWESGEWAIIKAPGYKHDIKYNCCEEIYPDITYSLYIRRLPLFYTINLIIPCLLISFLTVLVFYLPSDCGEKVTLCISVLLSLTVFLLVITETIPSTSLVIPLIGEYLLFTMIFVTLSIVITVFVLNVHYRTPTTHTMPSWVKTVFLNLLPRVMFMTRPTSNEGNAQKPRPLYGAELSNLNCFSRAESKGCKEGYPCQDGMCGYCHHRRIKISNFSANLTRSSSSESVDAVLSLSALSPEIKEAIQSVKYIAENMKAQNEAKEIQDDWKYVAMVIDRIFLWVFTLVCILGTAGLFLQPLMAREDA
UniProt P36544, residues 23-502: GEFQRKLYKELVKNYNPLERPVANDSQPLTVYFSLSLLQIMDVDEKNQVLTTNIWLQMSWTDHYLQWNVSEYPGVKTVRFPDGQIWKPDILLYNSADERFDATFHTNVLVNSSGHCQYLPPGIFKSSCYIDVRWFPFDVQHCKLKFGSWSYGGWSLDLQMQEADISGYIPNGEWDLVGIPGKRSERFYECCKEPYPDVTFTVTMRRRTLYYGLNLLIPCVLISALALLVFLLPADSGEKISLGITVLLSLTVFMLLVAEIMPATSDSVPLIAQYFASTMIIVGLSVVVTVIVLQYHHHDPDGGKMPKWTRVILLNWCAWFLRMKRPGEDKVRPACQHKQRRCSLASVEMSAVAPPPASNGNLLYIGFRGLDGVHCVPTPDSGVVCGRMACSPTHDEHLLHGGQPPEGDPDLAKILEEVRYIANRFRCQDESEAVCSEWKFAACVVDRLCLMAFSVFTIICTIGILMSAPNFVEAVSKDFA
UniProt P05556: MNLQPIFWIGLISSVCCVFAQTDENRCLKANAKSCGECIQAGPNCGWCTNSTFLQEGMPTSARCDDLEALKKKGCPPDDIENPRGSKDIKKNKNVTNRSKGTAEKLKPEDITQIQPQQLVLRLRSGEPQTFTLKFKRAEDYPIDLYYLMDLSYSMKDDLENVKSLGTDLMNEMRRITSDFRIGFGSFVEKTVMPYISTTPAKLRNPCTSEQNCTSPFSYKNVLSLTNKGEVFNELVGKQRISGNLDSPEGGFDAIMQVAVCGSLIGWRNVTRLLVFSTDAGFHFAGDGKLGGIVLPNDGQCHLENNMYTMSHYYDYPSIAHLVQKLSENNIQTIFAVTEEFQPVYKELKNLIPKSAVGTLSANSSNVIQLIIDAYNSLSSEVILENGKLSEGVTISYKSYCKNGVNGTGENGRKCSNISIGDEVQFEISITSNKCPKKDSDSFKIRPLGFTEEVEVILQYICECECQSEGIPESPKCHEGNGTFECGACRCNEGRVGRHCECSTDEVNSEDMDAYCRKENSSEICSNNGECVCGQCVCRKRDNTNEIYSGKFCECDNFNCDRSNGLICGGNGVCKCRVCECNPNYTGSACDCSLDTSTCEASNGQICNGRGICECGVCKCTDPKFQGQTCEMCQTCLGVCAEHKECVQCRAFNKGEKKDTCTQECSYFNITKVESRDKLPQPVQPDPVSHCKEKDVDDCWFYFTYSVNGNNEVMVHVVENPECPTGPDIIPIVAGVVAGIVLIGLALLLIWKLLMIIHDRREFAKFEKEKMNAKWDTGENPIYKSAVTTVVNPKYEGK
UniProt P17787, residues 26-502: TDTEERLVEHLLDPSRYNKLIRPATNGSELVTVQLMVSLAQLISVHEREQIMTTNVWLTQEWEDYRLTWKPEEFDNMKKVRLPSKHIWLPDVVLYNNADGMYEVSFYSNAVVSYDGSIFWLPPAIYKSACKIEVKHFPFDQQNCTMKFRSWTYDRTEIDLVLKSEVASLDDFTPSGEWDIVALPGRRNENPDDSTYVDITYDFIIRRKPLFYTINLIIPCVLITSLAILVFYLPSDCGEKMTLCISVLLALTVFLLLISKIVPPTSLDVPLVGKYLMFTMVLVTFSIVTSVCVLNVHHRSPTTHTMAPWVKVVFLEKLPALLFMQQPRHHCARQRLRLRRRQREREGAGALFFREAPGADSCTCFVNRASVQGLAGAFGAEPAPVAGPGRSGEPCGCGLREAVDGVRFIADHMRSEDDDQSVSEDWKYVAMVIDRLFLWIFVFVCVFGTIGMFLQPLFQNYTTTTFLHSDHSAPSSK

Experiments:
[1] = molecular target: T1, peptide mimicking loop II of Lystar5 (Asterias rubens); experiment: pull-down; affinity extraction: Lystar5 or loop I or II (1 mg/mL) coupled to NHS Flexibind magnetic beads, incubated 1 h in TBS with the pre-cleared membrane fraction of HaCaT keratinocytes; washes with TBS, TBS + 1 M NaCl + 0.5% Triton X-100, TBS + 0.5% Triton X-100; Western blotting; only the target …
T1 sequence (peptide, C-terminal amide): GCQVIYSTERGKLRIDCG

[2] = molecular target: T2, peptide mimicking loop I of Lystar5 (Asterias rubens); experiment: as above
T2 sequence (peptide, C-terminal amide): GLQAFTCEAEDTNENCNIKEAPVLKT

[3] = molecular target: T1, peptide mimicking loop II of Lystar5 (Asterias rubens); experiment: pull-down; affinity extraction: Lystar5 or loop I or II (1 mg/mL) coupled to NHS Flexibind magnetic beads, incubated 1 h in TBS with the pre-cleared membrane fraction of PBMCs; washes with TBS, TBS + 1 M NaCl + 0.5% Triton X-100, TBS + 0.5% Triton X-100; Western blotting; only the target purified
[4] = molecular target: α4 nAChR subunit (human (endogenous in HaCaT keratinocytes and PBMCs)) (UniProt P43681); experiment: ELISA; antibodies to α3, α4, α7 or β2 nAChR subunits immobilised in ELISA wells, incubated 2 h with the membrane fraction of HaCaT cells; bound integrin subunits detected by anti-integrin antibodies (the methods call it immunoprecipitation)
[5] = molecular target: α3 nAChR subunit (human (endogenous in HaCaT keratinocytes and PBMCs)) (UniProt P32297); experiment: as above

α3 nAChR subunit (from UniProt P32297 32-505) (receptor)
binding [1]: binds
binding [2]: binds
binding [3]: binds

α4 nAChR subunit (from UniProt P43681 27-627) (receptor)
binding [1]: binds
binding [2]: binds
binding [3]: binds

α7 nAChR subunit (from UniProt P36544 23-502) (receptor)
binding [1]: no binding
binding [2]: no binding
binding [3]: no binding

β1 integrin subunit (from UniProt P05556 21-798) (receptor)
binding [1]: binds
binding [2]: binds
binding [3]: binds
binding [4]: binds
binding [5]: no binding

β2 nAChR subunit (from UniProt P17787 26-502) (receptor)
binding [1]: binds
binding [2]: binds
binding [3]: binds
